According to PMC5938239:
These are yes or no findings as the source states them, for the method shown. Binding seen in cells or lysates may run through a third protein. Some entries that bind do so weakly or less than the wild type. For some of these results: Sequences can lack the tags named with a protein.

Protein sequences, listed by entry. Tags and fused reporters are not part of them.
UniProt Q9R016: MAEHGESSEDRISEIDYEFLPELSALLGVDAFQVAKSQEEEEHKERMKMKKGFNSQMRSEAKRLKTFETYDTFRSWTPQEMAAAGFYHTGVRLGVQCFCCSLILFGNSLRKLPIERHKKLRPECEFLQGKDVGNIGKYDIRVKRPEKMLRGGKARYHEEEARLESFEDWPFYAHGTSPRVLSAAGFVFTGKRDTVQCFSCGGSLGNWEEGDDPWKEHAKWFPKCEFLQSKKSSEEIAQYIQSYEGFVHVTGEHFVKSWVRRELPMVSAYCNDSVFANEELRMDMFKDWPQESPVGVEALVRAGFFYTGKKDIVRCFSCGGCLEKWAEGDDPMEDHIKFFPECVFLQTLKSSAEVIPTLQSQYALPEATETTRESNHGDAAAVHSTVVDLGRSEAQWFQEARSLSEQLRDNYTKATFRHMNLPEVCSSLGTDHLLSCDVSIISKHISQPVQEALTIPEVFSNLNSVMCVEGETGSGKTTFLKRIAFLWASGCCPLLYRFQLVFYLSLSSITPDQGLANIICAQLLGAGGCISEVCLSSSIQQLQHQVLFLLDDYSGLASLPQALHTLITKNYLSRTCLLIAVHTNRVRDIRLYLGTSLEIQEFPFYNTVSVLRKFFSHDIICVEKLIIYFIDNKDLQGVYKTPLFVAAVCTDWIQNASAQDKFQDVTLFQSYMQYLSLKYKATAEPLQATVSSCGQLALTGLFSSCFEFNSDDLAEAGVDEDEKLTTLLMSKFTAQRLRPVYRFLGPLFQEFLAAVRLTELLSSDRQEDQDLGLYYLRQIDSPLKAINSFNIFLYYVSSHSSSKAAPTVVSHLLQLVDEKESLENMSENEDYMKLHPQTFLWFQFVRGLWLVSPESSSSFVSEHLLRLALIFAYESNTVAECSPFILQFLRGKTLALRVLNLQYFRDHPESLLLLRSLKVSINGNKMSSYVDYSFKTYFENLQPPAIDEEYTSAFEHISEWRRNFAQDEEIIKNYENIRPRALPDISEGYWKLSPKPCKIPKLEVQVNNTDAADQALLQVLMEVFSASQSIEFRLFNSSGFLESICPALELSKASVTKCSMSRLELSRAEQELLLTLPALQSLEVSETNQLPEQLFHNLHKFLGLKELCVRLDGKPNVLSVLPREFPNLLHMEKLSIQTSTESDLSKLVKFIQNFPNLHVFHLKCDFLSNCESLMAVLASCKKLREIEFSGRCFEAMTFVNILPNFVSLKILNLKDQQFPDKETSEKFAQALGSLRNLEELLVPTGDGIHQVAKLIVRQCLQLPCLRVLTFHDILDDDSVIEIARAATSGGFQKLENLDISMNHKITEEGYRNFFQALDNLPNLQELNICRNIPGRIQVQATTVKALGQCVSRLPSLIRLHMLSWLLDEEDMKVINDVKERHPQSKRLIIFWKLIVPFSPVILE

Target: Flag-NAIP5 (mouse) (UniProt Q9R016)
Assay: co-IP

Molecule | binding
SF Q493K (from UniProt Q56086 1-506) (ligand) | binds
SF R506Q (from UniProt Q56086 1-506) (ligand) | no binding
SF N500Q (from UniProt Q56086 1-506) (ligand) | binds
FliC2 flagellin from Yersinia enterocolitica (from UniProt A0ACH1C5V0 1-381) (ligand) | binds
SF R479K (from UniProt Q56086 1-506) (ligand) | binds
flagellin of Salmonella typhi (SF) (from UniProt Q56086 1-506) (ligand) | binds

Target: Flag-NAIP5 (mouse) (UniProt Q9R016)
Assay: co-IP
Remark: another data set of the same source

Molecule | binding
FliC (type b) flagellin from Pseudomonas aeruginosa (ligand, UniProt P72151 1-488) MALTVNTNIASLNTQRNLNASSNDLNTSLQRLTTGYRINSAKDDAAGLQISNRLSNQISGLNVATRNANDGISLAQTAEGALQQSTNILQRIRDLALQSANGSNSDADRAALQKEVAAQQAELTRISDTTTFGGRKLLDGSFGTTSFQVGSNAYETIDISLQNASASAIGSYQVGSNGAGTVASVAGTATASGIASGTVNLVGGGQVKNIAIAAGDSAKAIAEKMDGAIPNLSARARTVFTADVSGVTGGSLNFDVTVGSNTVSLAGVTSTQDLADQLNSNSSKLGITASINDKGVLTITSATGENVKFGAQTGTATAGQVAVKVQGSDGKFEAAAKNVVAAGTAATTTIVTGYVQLNSPTAYSVSGTGTQASQVFGNASAAQKSSVASVDISTADGAQNAIAVVDNALAAIDAQRADLGAVQNRFKNTIDNLTNISENATNARSRIKDTDFAAETAALSKNQVLQQAGTAILAQANQLPQAVLSLLR | binds
